# Test results taken from PubChem BioAssay AID1347165 (National Center for Advancing Translational Sciences (NCATS), 2019).
# In all, about 220,000 compounds went through this assay and about 5,700 (2.6%) were called active. This list was built around the results that the source calls inconclusive (neither active nor inactive); the mix of calls is not that of the screen. Calls come from the whole dose curve; as a rule, active = well fitted inhibition curve with a large enough effect; inconclusive = small, poorly fitted or top-dose-only effect; inactive = no such curve, though single readings can be large or run the other way. A potency beside an inconclusive call is a rough fit, not a confirmed value.
# Molecular target: Lysine-specific demethylase 5B (Homo sapiens) (UniProt Q9UGL1)
# Assay: Primary screen for KDM5B Histone Demethylases FDH-coupled qHTS; note: nearly all actives have a fitted effect of over 70% in size; for activity change, negative = inhibition: 0% is about no effect
# Settings: FDH-coupled NADH fluorescence (FDH is formaldehyde dehydrogenase); activity change, negative = inhibition: at 57.7 µM (top of the series) unless noted
# How it was run: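 Coupled FDH/NAD⁺ fluorescence readout. KDM5BΔAP 200 nM final; compound titration, 10 min RT preincubation; substrate mix 12.5 µM H3K4me3, 25 µM 2-OG, 50 µM Fe(II), 100 µM ascorbate, 0.25 mM NAD⁺, 0.25 U/mL FDH; ΔRFU over 30 min.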
# Potency is the fitted concentration of half-maximal effect; tags give direction and shape of the fitted curve.
# UniProt Q9UGL1, sequence (Q9UGL1 whole entry, looked up): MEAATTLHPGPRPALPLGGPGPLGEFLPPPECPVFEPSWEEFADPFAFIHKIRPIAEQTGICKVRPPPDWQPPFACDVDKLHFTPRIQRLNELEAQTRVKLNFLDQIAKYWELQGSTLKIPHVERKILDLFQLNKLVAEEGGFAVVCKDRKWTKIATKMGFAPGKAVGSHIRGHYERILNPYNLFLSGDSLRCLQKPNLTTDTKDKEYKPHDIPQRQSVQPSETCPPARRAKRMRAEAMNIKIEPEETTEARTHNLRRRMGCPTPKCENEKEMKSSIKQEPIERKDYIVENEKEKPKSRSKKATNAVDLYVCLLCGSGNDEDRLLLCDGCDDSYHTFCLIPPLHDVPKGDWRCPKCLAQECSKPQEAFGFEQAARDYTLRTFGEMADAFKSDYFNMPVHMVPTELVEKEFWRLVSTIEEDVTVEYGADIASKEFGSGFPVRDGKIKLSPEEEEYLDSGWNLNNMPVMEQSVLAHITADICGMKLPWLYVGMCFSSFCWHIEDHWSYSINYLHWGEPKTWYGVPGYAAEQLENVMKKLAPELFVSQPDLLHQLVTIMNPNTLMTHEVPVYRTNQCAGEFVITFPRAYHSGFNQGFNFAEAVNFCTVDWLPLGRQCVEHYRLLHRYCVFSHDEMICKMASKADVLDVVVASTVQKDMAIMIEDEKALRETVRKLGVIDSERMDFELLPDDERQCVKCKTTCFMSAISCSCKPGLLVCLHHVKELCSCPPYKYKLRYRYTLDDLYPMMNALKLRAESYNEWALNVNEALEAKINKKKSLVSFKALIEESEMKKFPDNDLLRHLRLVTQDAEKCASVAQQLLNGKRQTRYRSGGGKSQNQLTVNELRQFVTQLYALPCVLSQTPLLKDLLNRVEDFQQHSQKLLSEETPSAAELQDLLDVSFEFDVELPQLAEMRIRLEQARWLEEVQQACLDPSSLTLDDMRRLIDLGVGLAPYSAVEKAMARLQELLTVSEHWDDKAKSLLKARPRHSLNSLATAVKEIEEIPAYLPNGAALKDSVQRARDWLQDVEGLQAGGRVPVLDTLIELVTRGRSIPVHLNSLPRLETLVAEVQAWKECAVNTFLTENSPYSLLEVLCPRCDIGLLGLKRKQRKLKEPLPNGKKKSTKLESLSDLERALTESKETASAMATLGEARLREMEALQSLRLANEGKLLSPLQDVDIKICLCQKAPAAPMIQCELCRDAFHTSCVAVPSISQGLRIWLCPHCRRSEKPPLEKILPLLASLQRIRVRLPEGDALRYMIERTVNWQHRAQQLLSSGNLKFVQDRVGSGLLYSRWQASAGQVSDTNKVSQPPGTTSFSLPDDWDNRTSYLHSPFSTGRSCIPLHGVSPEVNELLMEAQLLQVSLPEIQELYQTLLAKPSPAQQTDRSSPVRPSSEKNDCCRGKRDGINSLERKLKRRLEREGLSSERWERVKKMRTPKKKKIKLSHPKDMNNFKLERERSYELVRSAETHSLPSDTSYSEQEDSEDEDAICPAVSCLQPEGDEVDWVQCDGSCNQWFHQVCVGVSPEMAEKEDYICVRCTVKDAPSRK
SMILES,Potency,"activity change, negative = inhibition"
O=C(NCCc1ccccn1)c1ccc2c3c(cccc13)CC2,"inconclusive: 22.4 µM [inhibitor, partial curve, poor fit]",
Cc1cc(C)cc(OCc2nnc(SCC(=O)NC3CCCCCC3)n2C)c1,inactive,
CN(C)C(=O)/C=C/c1csc(-c2ccc(F)cc2)n1,"inconclusive: 8.91 µM [inhibitor, partial curve, poor fit]",
COc1ccc(-c2cc(-c3ccc([S+](C)(=O)[O-])cc3)cn3cncc23)cc1,inactive,
Cc1ccccc1CC1(CO)CCCN(c2ccc(-c3nccn3C)nn2)C1 (stereo unspecified),"inconclusive: 25.1 µM [inhibitor, partial curve, poor fit]",
Cc1ccc(C2Cn3nnc(-c4noc(-c5c(F)cccc5F)n4)c3CO2)cc1 (stereo unspecified),inactive,
COC(=O)CC1C(=O)NCCN1S(=O)(=O)c1ccc(Br)cc1 (stereo unspecified),inactive,
Cc1ccc(Cl)cc1N1CCN(C(=O)CSc2cc(=O)n(C)c3ccccc23)CC1,"inconclusive: 28.2 µM [inhibitor, partial curve, poor fit]",
COC(=O)c1cc(-c2ccc(OC)cc2)nc2nc(SC)[nH]c(=O)c12,"inconclusive: 28.2 µM [inhibitor, partial curve, poor fit]",
O=C(NC1CCCCCC1)c1ccc(N2CC3CC(C2)[C@H]2CCCC(=O)N2C3)nc1 (stereo partly specified),"inconclusive: 17.8 µM [inhibitor, single point]",
CCOc1ccccc1NC(=O)CSc1nc2nc(-c3cccs3)cc(C(F)(F)F)c2c(=O)[nH]1,"inconclusive: 44.7 µM [inhibitor, partial curve, poor fit]",
Cc1cccc(CC(=O)Nc2ccc3nc(N4CCC(C)CC4)cc(C)c3c2)c1,"inconclusive: 31.6 µM [inhibitor, partial curve, poor fit]",
CCc1cccc(-n2c(=O)c3cccnc3n2CC(=O)NCc2ccc(C)cc2)c1,"inconclusive: 1.58 µM [inhibitor, full curve, poor fit]",
COCCNc1ncc(-c2ccncc2)c2c1OCC2,"inconclusive: 50.1 µM [inhibitor, partial curve, poor fit]",
COc1ccccc1-c1cc2c(ccn2C(C)C)c(C(=O)NCc2c(C)cc(C)[nH]c2=O)n1,"inconclusive: 14.1 µM [inhibitor, partial curve, poor fit]",
COc1ccccc1-c1cc2nc(C)c(CCC(=O)NCCc3cccc(C)c3)c(C)n2n1,"inconclusive: 35.5 µM [inhibitor, partial curve, poor fit]",
O=C(CSC1=NCCS1)N(Cc1ccc(Cl)cc1)C12CC3CC(CC(C3)C1)C2,inactive,
O=C(NC1CCCc2ccccc21)c1csc2ccccc12 (stereo unspecified),inactive,
O=C(Nc1cccc(Cl)c1)c1cc2c(=O)n3ccccc3nc2s1,"inconclusive: 17.8 µM [inhibitor, partial curve, poor fit]",
CCNC(=O)NC(=O)CN(Cc1ccccn1)C(C)C,"inconclusive: 2.24 µM [inhibitor, full curve, poor fit]",
COc1ccc(OC)c(NC(=O)C2(n3cnnn3)CCCCC2)c1,inactive,
COCCN(CCOC)C(=O)COC(=O)c1ccc(C#N)cc1,inactive,

SMILES,Potency,"activity change, negative = inhibition"
CCOc1ccccc1CNC(=O)c1oc2c(c1C)-c1[nH]ncc1CC2,"inconclusive: 22.4 µM [inhibitor, partial curve, poor fit]",
CN(C)c1ccc(/C=N/NC(=O)CNC(=O)/C=C/c2ccccc2)cc1,"inconclusive: 31.6 µM [inhibitor, single point]",
c1ccc(-n2nnnc2CSc2nnc(N3CCCCC3)n2-c2ccccc2)cc1,inactive,
COc1ccc(-c2nnc(C[C@@H]3C[C@@H](C(C)C)[C@H](CN4CCN(c5ncccn5)CC4)C=C3C)o2)cc1,"inconclusive: 28.2 µM [inhibitor, single point]",
O=C(c1ccc2c(c1)nc1n2CCCCC1)N1CCN(c2ccccc2F)CC1,inactive,
O=C(NC1=NCCS1)c1cc2ccccc2s1,inactive,
CCc1nc(-c2c3n(c(=O)n(Cc4cccc(F)c4)c2=O)CCCC3)no1,inactive,
Cc1nc(CN2C(=O)OC3(CCN(Cc4c[nH]c5ccccc45)CC3)C2(C)c2ccccc2)cs1 (stereo unspecified),"inconclusive: 25.1 µM [inhibitor, single point]",
O=C(NCCc1nc2ccccc2[nH]1)C1CC(=O)N(c2n[nH]c3ccccc23)C1 (stereo unspecified),inactive,
COc1ccc(C2C=C(C(=O)O)Nc3ncnn32)cc1 (stereo unspecified),"inconclusive: 28.2 µM [inhibitor, partial curve, poor fit]",
O=C(Nc1ccc(Cl)cc1)C1=NO[C@@H]2CN(c3ccccn3)C[C@H]12,"inconclusive: 35.5 µM [inhibitor, single point]",
CCOC(=O)C1CCCN(C(=O)CN2C(=O)COc3ccc(S(=O)(=O)N4CCCCC4)cc32)C1 (stereo unspecified),inactive,
Cc1ccc(-c2nc(CCNC(=O)Nc3cc(F)c(N(C)C)c(F)c3)co2)cc1,inactive,
COC(=O)c1ccc(NC(=O)CCc2c(C)nc3c(c(C)nn3C(C)(C)C)c2C)cc1,"inconclusive: 15.8 µM [inhibitor, partial curve, poor fit]",
COc1cccc(C(CNCC(O)CN2CCOCC2)c2c[nH]c3ccccc23)c1OC (stereo unspecified),"inconclusive: 3.98 µM [inhibitor, full curve, poor fit]",
CCOC(=O)c1cccnc1N1C[C@H]2OC(=O)N(Cc3ccccn3)[C@H]2C1,active: 28.2 µM,
O=C(Cc1ccccc1)N1CCNc2cnc(Nc3ccccc3)nc2C1,"inconclusive: 39.8 µM [inhibitor, partial curve, poor fit]",
Cc1nc(SCC(=O)Nc2nsc(-c3ccc(C(C)(C)C)cc3)n2)c2c3c(sc2n1)CCCC3,"inconclusive: 25.1 µM [inhibitor, partial curve, poor fit]",
CC(Oc1ccc2c(C(C)C)cc(=O)oc2c1)C(=O)Nc1cccc(F)c1 (stereo unspecified),"inconclusive: 28.2 µM [inhibitor, partial curve, poor fit]",
COc1ccc(OC)c(CNC(=O)c2ccc3c(c2)c(C)c(C)n3C)c1,"inconclusive: 14.1 µM [inhibitor, partial curve, poor fit]",
O=C(Cn1c(=O)n(-c2ccccc2)c(=O)c2ccc(C(=O)NCc3ccc4c(c3)OCO4)cc21)Nc1ccc(Br)cc1,"inconclusive: 4.47 µM [inhibitor, full curve, poor fit]",
CCS(=O)(=O)c1oc(-c2ccc(F)cc2)nc1S(=O)(=O)c1ccccc1,"inconclusive: 1.12 µM [inhibitor, full curve, poor fit]",

SMILES,Potency,"activity change, negative = inhibition"
C#CCO[C@@H]1CCN(S(=O)(=O)c2cccs2)[C@H](C(=O)N[C@H](C)C(N)=O)C1,inactive,
CCOc1ccc(C(=O)N2CCC(Cc3nc(-c4ccc(F)cc4)no3)CC2)cc1OCC,inactive,
Cc1ccc2nc(-c3ccc(C)o3)c(Nc3ccc4c(c3)OCCO4)n2c1,"inconclusive: 31.6 µM [inhibitor, partial curve, poor fit]",
O=C(Cn1c(=O)c2c(n1Cc1ccccc1)CN(Cc1ccccc1)CC2)NCc1cccc(F)c1,"inconclusive: 28.2 µM [inhibitor, single point]",
FC(F)(F)c1cccc(NC(=S)NCCc2c[nH]c3ccccc23)c1,,inconclusive: -32.4% [inhibitor]
O=C(NC1(C(F)(F)F)N=C(c2ccccc2)N(Cc2ccco2)C1=O)c1ccccc1 (stereo unspecified),inactive,
Cc1cccc(-c2cnc3[nH]cc(CC(=O)N4CCOCC4)c3c2)c1,"inconclusive: 35.5 µM [inhibitor, single point]",
COC(=O)[C@@H]1Cc2c([nH]c3ccccc23)[C@H]2C[C@H](NCCNC(C)=O)C[C@@H](c3ccccc3)N21,active: 28.2 µM,
CC(C)Oc1cccc(-c2cccc(COc3cnc4c(ccn4CC(=O)O)c3)c2)c1,"inconclusive: 39.8 µM [inhibitor, partial curve, poor fit]",
COc1ccc(N2CCN(C(=O)CN3C(=O)COc4ccc(S(=O)(=O)N5CCC(C)CC5)cc43)CC2)cc1,"inconclusive: 2 µM [inhibitor, full curve, poor fit]",
COc1ccc([S+](=O)([O-])c2nnn3c2nc(N2CCOCC2)c2ccccc23)cc1,active: 79.4 µM,
Cc1ccccc1N1Cc2c(NC3CCCCC3)ncnc2N(C)CC1=O,inactive,
CCCCNC(=O)N1CCN(C(=O)Cc2c[nH]c3ccccc23)CC1,inactive,
CCn1cc(Br)c(C(=O)Nc2ccc(C)cc2C)n1,inactive,
COc1ccccc1NC(=O)c1c(C)oc2ccn(Cc3ccc(F)cc3)c(=O)c12,active: 31.6 µM,
CN(c1cc(=O)c2ccnc(-c3cccc(CO)c3)c2o1)C1CCOCC1,active: 39.8 µM,
Cc1ccc2c(CSc3nnnn3C(C)(C)C)cc(=O)oc2c1,inactive,
CC[C@H]1CN(S(=O)(=O)c2ccc(OC)cc2)CC[C@H]1CC(=O)Nc1ccccc1,"inconclusive: 20 µM [inhibitor, partial curve]",
O=C(NCCc1ccccc1)c1ccc(Cn2c(SCc3ccccc3F)nc3cccnc32)cc1,"inconclusive: 31.6 µM [inhibitor, partial curve, poor fit]",
COC(=O)C(NC(=O)N1CCc2nc3cc(-c4ccccc4)[nH]n3c(=O)c2C1)C(C)C (stereo unspecified),active: 25.1 µM,
COC(=O)C1=C(C)N=C2SC=C(CC(=O)N3CCCC3)N2C1c1cc(OC)ccc1OC (stereo unspecified),"inconclusive: 35.5 µM [inhibitor, partial curve, poor fit]",
CC(Oc1ccccc1)C(=O)Nc1ccccc1C(=O)OCc1cc(=O)n2nc(C(C)C)sc2n1 (stereo unspecified),"inconclusive: 15.8 µM [inhibitor, partial curve, poor fit]",
